Measurements taken from publication PMC12136788.
Some of the results follow.

B1: chr7:149068622:149068623:-_ENSMUSG00000025139_ENSMUST00000001950|mus_hu|mus_mus_mus_hu_False|28_58 (ssRNA)
RNA: GGGAGUUCUACAGUCCGACGAUCGUGAGGCCUCUGAGUGUGGCUUGUGGUCUGUCCUGGGUUAGAGUUGUUAAUAUCACUAAGUGGACCAUCUAGAACGUUCCAGUCUGCCUGACUACCUUCAUUCCCAAUGGAGAAGAAAUCCAACAGAGGAUUGAGCAUCA
B2: chr1:17152557:17152558:+_ENSMUSG00000025777_ENSMUST00000026879|mus_hu|motif|central (ssRNA)
RNA: GGGAGUUCUACAGUCCGACGAUCAUACCCACUACCCAGCCAAUACCUAGACAUGCUAGUGAUUAGCUGGGACAUUCACCGGAAUGCCACUUAUGUGUAUGAAGAGGGCUACAGAUGCCACCCUUUCUACCUCCCACUGACUGGCAACAGAGGAUUGAGCAUCA
B3: chr11:87044496:87044497:-_ENSMUSG00000046442_ENSMUST00000055438|mus_hu|FALSE|FALSE (ssRNA)
RNA: GGGAGUUCUACAGUCCGACGAUCUGGAAUAUCAUGAGUCUUUCUGAGCUUCCUCAUGUUUUCACUGUACCCUUUCCAACUAUUUUGCCUCCAUGGCAGAGAACUUCUUAUCCUAUUUCUCUUCCCACUUCCAGUAAGUGAGGACAACAGAGGAUUGAGCAUCA
B4: chr9:14812383:14812384:-_ENSMUSG00000031934_ENSMUST00000164273|mus_mus|mus_mus_mus_hu_True|48_78 (ssRNA)
RNA: GGGAGUUCUACAGUCCGACGAUCAUAGCCCAGGUAGAUACACGCUAACAGUAUAAUCACAAAUGUCAGCAGGCGGCAGCUAAUGUAUUUCAUGAUUAAAUUAUUAGAAUUUUUCUUUGUCUUCAAGUACUGCUCCACAAUUGGCAACAGAGGAUUGAGCAUCA
B5: 52470271_52471310_1365_CDS_ENSMUSG00000028312_ENSMUST00000117280|mouse|control|control (ssRNA)
RNA: GGGAGUUCUACAGUCCGACGAUCGGCAUGUUUCAGCUUCAUCUGAGCCUGCUUGGCCUCAGUCUGAGCUUUGCUGAUAUCGUUUUUACAGGCUAUCAUCUGCCCAGCCAGAGUUGCUUCUGCUCCAUCUUCGUUACUGGACAACAACAGAGGAUUGAGCAUCA
B6: chr3:15292738:15292739:+_ENSG00000131375_ENST00000253693|hu_mus|FALSE|FALSE (ssRNA)
RNA: GGGAGUUCUACAGUCCGACGAUCCCAGUAAUAGCUGAGAGUUCUCAAUCAUUGGAGUUGUGUUGUCUUGAUGGGGACAGUACUAUUAAAGUCCAAGAAAAAAGGUCCUUCUUGUUUAGGCAAAAAAGUACUAGGGAUGAUAUUCAACAGAGGAUUGAGCAUCA

The binders below were run against T1, UNK ZnF1-3 (human, UniProt Q9C0B0 31-174) (assay: nsRBNS (natural sequence RNA bind-n-seq); RBNS binding buffer (assumed for nsRBNS): 25 mM Tris pH 7.5, 150 mM KCl, 3 mM MgCl2, 0.01% Triton X-100, 500 ug/ml BSA, 20 U/ml SUPERase-In, 4 C; UNK is unkempt and MSI1 is Musashi-1; names of the RNAs are library labels; protein concentration not given here; high values mean tight binding).
T1 sequence: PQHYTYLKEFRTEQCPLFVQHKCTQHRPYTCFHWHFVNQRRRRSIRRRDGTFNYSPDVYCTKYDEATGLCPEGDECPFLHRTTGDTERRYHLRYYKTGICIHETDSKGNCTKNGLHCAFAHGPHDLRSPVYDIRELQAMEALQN

Row | Binder | binding signal [enrichment R]
1 | B1 | 0.85
2 | B2 | 0.685
3 | B3 | 0.469
4 | B4 | 2.23
5 | B5 | 0.368
6 | B6 | 1.08
